# Data: publication PMC8696166
# Sequences of proteins named here, by UniProt entry; tags and fusion partners are left off.
# UniProt P0A3F4: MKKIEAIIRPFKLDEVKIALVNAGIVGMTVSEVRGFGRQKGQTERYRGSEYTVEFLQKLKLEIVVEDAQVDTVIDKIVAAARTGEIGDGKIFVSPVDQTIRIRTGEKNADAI
# Read-outs that look alike come from different tables or passages of the source. No constants are given. Whether binding was seen depends on the method and setting. Some results given as binding are weak or reduced against the parent protein; the word gives no strength. For part of these data: Where a sequence is shown, tags or fusion partners need not be part of it.
# T1: NtcA, BACTH fusions (Synechococcus elongatus PCC7942) (UniProt P29283)
# T1 sequence: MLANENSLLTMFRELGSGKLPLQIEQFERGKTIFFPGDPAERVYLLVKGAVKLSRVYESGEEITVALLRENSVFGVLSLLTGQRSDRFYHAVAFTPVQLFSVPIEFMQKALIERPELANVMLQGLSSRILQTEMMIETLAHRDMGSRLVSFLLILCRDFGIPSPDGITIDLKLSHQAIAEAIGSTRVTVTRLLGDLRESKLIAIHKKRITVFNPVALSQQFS
# B1: PipX 1-70, BACTH fusions (domain or fragment, UniProt Q7X386 1-70)
# chain: MASENYLNHPTFGLLYQICSFGDSKELFATLYAQRLFFLVAFDARGTRFEPIGRNEARMLVDNRLRQLRR
# B2: NtcA, BACTH fusions (protein, UniProt P29283 1-222)
# chain: T1 sequence
# B3: PipX (PII interacting protein X), BACTH fusions (protein, UniProt Q7X386 1-89)
# chain: MASENYLNHPTFGLLYQICSFGDSKELFATLYAQRLFFLVAFDARGTRFEPIGRNEARMLVDNRLRQLRRDASLQEYNQLQQVFKQTFL
# B4: PipX 1-54, BACTH fusions (domain or fragment, UniProt Q7X386 1-54)
# chain: MASENYLNHPTFGLLYQICSFGDSKELFATLYAQRLFFLVAFDARGTRFEPIGR
# What was measured:
# Assay in all cases: two-hybrid; bacterial two-hybrid (BACTH, reconstitution of B. pertussis adenylate cyclase from T18 and T25) in E. coli BTH101; plate assays on MacConkey-lactose and M63-maltose + X-gal, 0.5 mM IPTG, 30°C; signals classed by eye into five levels
# [1] = target: T1, NtcA, BACTH fusions (Synechococcus elongatus PCC7942)
# [2] = target: PII (GlnB), BACTH fusions (Synechococcus elongatus PCC7942) (UniProt P0A3F4)
# [3] = substrate: PII (GlnB), BACTH fusions (Synechococcus elongatus PCC7942) (UniProt P0A3F4); remark: listed apart in the source
# [4] = target: T1, NtcA, BACTH fusions (Synechococcus elongatus PCC7942); remark: listed apart in the source
Molecule,binding [1],binding [2],binding [3],binding [4]
"PII (GlnB), BACTH fusions (from UniProt P0A3F4 1-112)",no binding,binds,,
B1,,,binds,binds
B2,,,,binds
B3,,,binds,binds
B4,,,no binding,no binding
